# Measurements: PubChem BioAssay AID485281 (National Center for Advancing Translational Sciences (NCATS), 2010)
# Several values for one entry are separate records, joined by “and”; a condition that tells them apart may be missing. Equal values may be shown once. In all, about 350,000 compounds went through this assay and about 260 (0.074%) were called active. The shares of active, inactive and inconclusive entries below differ from those in the screen. The call rests on the fitted dose curve; in most records, active means well fitted inhibition curve with a large enough effect; inconclusive means small, poorly fitted or top-dose-only effect; inactive means no such curve, though single readings can be large or run the other way. Where the call is inconclusive, the potency comes from a doubtful curve fit.
# Target: Ferritin light chain (Equus caballus) (UniProt P02791)
# Sequence of UniProt P02791 (P02791 whole entry, looked up): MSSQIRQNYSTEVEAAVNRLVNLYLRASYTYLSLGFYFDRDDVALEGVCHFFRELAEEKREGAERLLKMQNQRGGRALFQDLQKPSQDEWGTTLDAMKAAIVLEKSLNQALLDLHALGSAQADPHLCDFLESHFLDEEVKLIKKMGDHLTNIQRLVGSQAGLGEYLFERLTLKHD
# Assay: qHTS Assay for Identification of Novel General Anesthetics; further: nearly all actives have a fitted effect of over 20% in size
# Settings: apoferritin/1-aminoanthracene competitive binding, fluorescence; activity change, negative = displacement: at 77.5 µM (top of the series)
# In short: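 Horse-spleen apoferritin (10 uM) was mixed with 50% saturated 1-aminoanthracene in PBS, exposed to compounds for 10 min at room temperature, and read for fluorescence (ex 380 nm, em 535 nm). Competitive displacement was fitted with a four-parameter Hill equation.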
# On the % scale 0 is the no-effect control and ±100 the full control effect; potency means the concentration at half of the fitted maximal effect; tags describe the fitted curve by direction and shape.
Structure (SMILES),Potency,"activity change, negative = displacement"
Cc1ccc(NC(=O)CN2C(=O)NC3(CCc4ccccc43)C2=O)cc1Cl (stereo not given),"inconclusive: 15.8 µM [inhibitor, partial curve]",
CCc1ccc(NC(=O)C2=CC(c3cccs3)=NS(=O)(=O)N2C)cc1,"inactive and inconclusive: 12.6 µM [inhibitor, partial curve]",
Cc1cc(SCC(=O)c2ccccc2)nc(SCC(=O)c2ccccc2)n1,"inconclusive: 35.5 µM [inhibitor, partial curve]",
Cc1cc(C)nc(SCc2ccc(Br)cc2)n1,"inconclusive: 5.01 µM [inhibitor, full curve]",
O=C(Nc1ccc(Cl)cc1)[C@@H]1[C@@H]2C(=O)N(c3ccc(Cl)cc3Cl)C(=O)[C@@H]2[C@H]2C=CC=NN21,"inconclusive: 28.2 µM [inhibitor, single point]",
N#C/C(=C\c1cc(Br)ccc1F)C(=O)NC1CC1,,inactive: -3.09%
CCOc1cc(-c2ccc(OC(=O)c3ccccc3)c(OC)c2)cc(=O)c2c(C)oc(C)c12,"inconclusive: 39.8 µM [inhibitor, partial curve]",
CCN(CCCNC(=O)CN1N=C(c2ccccc2)CCC1=O)c1ccccc1,"inconclusive: 11.2 µM [inhibitor, partial curve]",
CN(NS(=O)(=O)c1ccccc1)c1nc2ccccc2nc1C(F)(F)F,"inconclusive: 44.7 µM [inhibitor, single point]",
CCC(C)N1C(=O)/C(=C/c2c(NCCCOC(C)C)nc3c(C)cccn3c2=O)SC1=S (stereo not given),"inconclusive: 8.91 µM [inhibitor, partial curve]",
Cc1cc([N+](=O)[O-])cc([N+](=O)[O-])c1NCC(C)C,"inconclusive: 28.2 µM [inhibitor, partial curve]",
C/C(CC(=O)Nc1ccccc1)=N\NC(=O)COc1ccc(C)cc1Br,"inconclusive: 25.1 µM [inhibitor, partial curve]",
O=C(c1cn(-c2ccccc2)nc1-c1ccc(Br)cc1)N1CCOCC1,,inactive: -1.05%
Cn1c(Oc2ccccc2)c(C=O)c2ccccc21,"inconclusive: 28.2 µM [inhibitor, partial curve]",
CC(C)c1ccc(NC(=O)CCS(=O)(=O)c2ccc3c(c2)CC(=O)N3C)cc1,"inconclusive: 31.6 µM [inhibitor, partial curve, poor fit]",
Cc1nn(Cc2ccccc2Cl)c(C)c1C(=O)Nc1nnc(C2CC2)s1,"inconclusive: 17.8 µM [inhibitor, partial curve]",
O=C(CN1CC(=O)Oc2ccccc21)NCc1ccco1,,inactive: -11.8%
Cc1cc(Cl)ccc1OCC(=O)N1CC(C)CC(C)C1 (stereo not given),"inconclusive: 31.6 µM [inhibitor, partial curve]",
Fc1cnc(Cl)nc1NC1CCCCC1,"inconclusive: 14.1 µM [inhibitor, partial curve]",
CCOc1ccc(NC(=O)CC2C(=O)N(c3ccccc3)C(=S)N2Cc2ccccn2)cc1 (stereo not given),"inconclusive: 31.6 µM [inhibitor, partial curve]",

Structure (SMILES),Potency,"activity change, negative = displacement"
COc1ccc2occ(C(C)=O)c2c1,"inconclusive: 35.5 µM [inhibitor, partial curve]",
CC(=O)/C(C#N)=C1\NC(=O)C(Cc2ccccc2)S1 (stereo not given),"inconclusive: 31.6 µM [inhibitor, partial curve]",
COc1ccccc1NC(=O)CSc1nnc(C2CCCCC2)n1N,"inconclusive: 39.8 µM [inhibitor, partial curve]",
OCCN(CCO)c1nc2ccccc2[nH]1,,inactive: 39.6%
CC(=O)N1CCCc2cc(S(=O)(=O)N3CCCC(C(=O)NCc4ccc(C)cc4)C3)ccc21 (stereo not given),"inactive and inconclusive: 31.6 µM [inhibitor, single point]",
CC(=O)c1ccc(Nc2ncnc3c2oc2ccccc23)cc1,,inactive: -11%
Nc1ccc(C(=O)Oc2ccccc2)c(O)c1,"inconclusive: 28.2 µM [inhibitor, partial curve]",
CN(C)S(=O)(=O)N1CCCC(C(=O)c2ccc(C(F)(F)F)cc2)C1 (stereo not given),"inconclusive: 28.2 µM [inhibitor, single point]",
CCc1nn2c(=O)c(S(=O)(=O)Nc3ccc(C(C)C)cc3)c(C)nc2s1,"inconclusive: 31.6 µM [inhibitor, partial curve] and inconclusive: 35.5 µM [inhibitor, partial curve]",
O=S(=O)(Nc1ccc(N2CCOCC2)nn1)c1ccccc1,,inactive: -15.4%
CC(C)CCNC(=O)C(Cc1ccccc1)NS(=O)(=O)c1ccc2c(c1)c(=O)n(C)c(=O)n2C (stereo not given),"inconclusive: 25.1 µM [inhibitor, single point]",
CCCC(=O)Oc1cccc(C2NC(=O)c3ccccc3O2)c1 (stereo not given),"inconclusive: 35.5 µM [inhibitor, single point]",
CN(CCc1ccccc1)C(=O)c1cc(COc2cccc(C(F)(F)F)c2)on1,"inconclusive: 6.31 µM [inhibitor, partial curve]",
Cc1ccc(NC(=O)CSc2nccn2Cc2ccccc2)cc1C,"inconclusive: 35.5 µM [inhibitor, partial curve]",
CCOc1cccc(C2c3c(oc4cc(C)c(C)cc4c3=O)C(=O)N2CCCN(C)C)c1 (stereo not given),"inconclusive: 35.5 µM [inhibitor, partial curve]",
CC(=O)c1ccc(NC(=O)N2CCN(c3cccc(Cl)c3)CC2)cc1,"inconclusive: 50.1 µM [inhibitor, partial curve]",
CC(C)Sc1ncc(Cl)c(C(=O)Nc2ccc(S(=O)(=O)N3CCCCC3)cc2)n1,"inconclusive: 28.2 µM [inhibitor, partial curve]",
CCn1c(O)c(N=NC(=O)CNc2cccc(C)c2)c2ccccc21,"inconclusive: 31.6 µM [inhibitor, partial curve, poor fit]",
COc1cc2[nH]c(=O)n(CCC(=O)N3CCc4ccccc4C3)c(=O)c2cc1OC,,inactive: -16.5%
CCOc1ccc(Nc2c(S(=O)(=O)c3ccccc3)cnc3ccc(F)cc23)cc1,"inconclusive: 7.08 µM [inhibitor, partial curve]",
